# According to the supplement of paper PMC4604168 (melanoma cell lines):
# The list shows a part of the results. Many values rest on one well or one pass, so single values are uncertain.
# System: MZ2-MEL
# Assay: cell count relative to DMSO control; melanoma cells; higher = more viable cells
# Conditions: library dose: standard library concentration; 72 h
# 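Also: cells treated in 1,536-well plates, then fixed and DAPI-stained, with nuclei counted from automated high-throughput microscope images.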
row,Structure (SMILES),cell count [%]
1,"CCCS(=O)(=O)Nc1ccc(F)c(C(=O)c2c[nH]c3ncc(Cl)cc23)c1F + CCN(CC)CCCCNc1ncc2cc(-c3cc(OC)cc(OC)c3)c(NC(=O)NC(C)(C)C)nc2n1 [PD173074] (first compound 0.4 µM, partner dose 0.5 µM)",102
2,"CN(c1ncccc1CNc1nc(Nc2ccc3c(c2)CC(=O)N3)ncc1C(F)(F)F)S(C)(=O)=O + Cn1c(Nc2ccc(C(F)(F)F)cc2)nc2cc(Oc3ccnc(-c4ncc(C(F)(F)F)[nH]4)c3)ccc21 [CHIR265] (first compound 0.4 µM, partner dose 0.4 µM)",45.7
3,"C=C(c1ccc(C(=O)O)cc1)c1cc2c(cc1C)C(C)(C)CCC2(C)C [Bexarotene] + CC(=O)c1c(C)c2cnc(Nc3ccc(N4CCNCC4)cn3)nc2n(C2CCCC2)c1=O [palbociclib] (first compound 10 µM, partner dose 0.2 µM)",70.9
4,"C=C(c1ccc(C(=O)O)cc1)c1cc2c(cc1C)C(C)(C)CCC2(C)C [Bexarotene] + Cc1nc(Nc2ncc(C(=O)Nc3c(C)cccc3Cl)s2)cc(N2CCN(CCO)CC2)n1 [dasatanib] (first compound 10 µM, partner dose 0.02 µM)",47.9
5,"CCCS(=O)(=O)Nc1ccc(F)c(C(=O)c2c[nH]c3ncc(Cl)cc23)c1F + NCC(=O)Nc1ccc(-n2nc(C(F)(F)F)cc2-c2ccc3c(ccc4ccccc43)c2)cc1 [OSU03012] (first compound 0.4 µM, partner dose 5 µM)",54.7
6,"NC1(c2ccc(-c3nc4ccn5c(=O)[nH]nc5c4cc3-c3ccccc3)cc2)CCC1 + OCCn1cc(-c2cnc3nnn(Cc4ccc5ncccc5c4)c3n2)cn1 [PF04217903] (first compound 2 µM, partner dose 5 µM)",103
7,"C=C(c1ccc(C(=O)O)cc1)c1cc2c(cc1C)C(C)(C)CCC2(C)C [Bexarotene] + C#Cc1cccc(Nc2ncnc3cc(OCCOC)c(OCCOC)cc23)c1 [erlotinib] (first compound 10 µM, partner dose 4 µM)",87.7
8,"CS(=O)(=O)c1ccc(C(=O)Nc2ccc(Cl)c(-c3ccccn3)c2)c(Cl)c1 [vismodegib] + CC(C)CCN1c2nc(Nc3cc(F)c(O)c(F)c3)ncc2N(C)C(=O)C1C [BID1870] (first compound 5 µM, partner dose 1 µM)",89.1
9,"NC1(c2ccc(-c3nc4ccn5c(=O)[nH]nc5c4cc3-c3ccccc3)cc2)CCC1 + COc1cc2c(Oc3ccc4[nH]c(C)cc4c3F)ncnc2cc1OCCCN1CCCC1 [cediranib] (first compound 2 µM, partner dose 2 µM)",98.4
10,"C=C(c1ccc(C(=O)O)cc1)c1cc2c(cc1C)C(C)(C)CCC2(C)C [Bexarotene] + COc1ccc2c(c1)CCC1C2CCC2(C)C(NCCCCCCN3C(=O)C=CC3=O)CCC12 [U73122] (first compound 10 µM, partner dose 2 µM)",69.5
11,"NC1(c2ccc(-c3nc4ccn5c(=O)[nH]nc5c4cc3-c3ccccc3)cc2)CCC1 + CS(=O)(=O)CCNCc1ccc(-c2ccc3ncnc(Nc4ccc(OCc5cccc(F)c5)c(Cl)c4)c3c2)o1 [lapatinib] (first compound 2 µM, partner dose 4 µM)",63.4
12,"CS(=O)(=O)c1ccc(C(=O)Nc2ccc(Cl)c(-c3ccccn3)c2)c(Cl)c1 [vismodegib] + COCC[n+]1c2c(n(Cc3cnccn3)c1C)C(=O)c1ccccc1C2=O [YM155] (first compound 5 µM, partner dose 0.002 µM)",57.2
13,"CCCS(=O)(=O)Nc1ccc(F)c(C(=O)c2c[nH]c3ncc(Cl)cc23)c1F + CC(=O)c1c(C)c2cnc(Nc3ccc(N4CCNCC4)cn3)nc2n(C2CCCC2)c1=O [palbociclib] (first compound 0.4 µM, partner dose 0.2 µM)",44.6
14,"C=C(c1ccc(C(=O)O)cc1)c1cc2c(cc1C)C(C)(C)CCC2(C)C [Bexarotene] + O=C(O)C(=O)Nc1sc2c(c1C(=O)O)CCNC2 [TCS401] (first compound 10 µM, partner dose 8.33333 µM)",106
15,"CCCS(=O)(=O)Nc1ccc(F)c(C(=O)c2c[nH]c3ncc(Cl)cc23)c1F + Nc1nc(F)nc2c1ncn2[C@@H]1O[C@H](CO)[C@@H](O)[C@@H]1O [fludarabine] (first compound 0.4 µM, partner dose 1 µM)",87.6
16,"NC1(c2ccc(-c3nc4ccn5c(=O)[nH]nc5c4cc3-c3ccccc3)cc2)CCC1 + COc1ccc2c(c1)CCC1C2CCC2(C)C(NCCCCCCN3C(=O)C=CC3=O)CCC12 [U73122] (first compound 2 µM, partner dose 2 µM)",90.2
17,"CS(=O)(=O)c1ccc(C(=O)Nc2ccc(Cl)c(-c3ccccn3)c2)c(Cl)c1 [vismodegib] + COc1cc(N2CCC(N3CCN(C)CC3)CC2)ccc1Nc1ncc(Cl)c(Nc2ccccc2S(=O)(=O)C(C)C)n1 [NVP-TAE684] (first compound 5 µM, partner dose 0.4 µM)",116
18,"C=C(c1ccc(C(=O)O)cc1)c1cc2c(cc1C)C(C)(C)CCC2(C)C [Bexarotene] + O=c1cc(-c2cccc3c2Sc2ccccc2S3)oc(N2CCOCC2)c1 [KU55933] (first compound 10 µM, partner dose 5 µM)",110
19,"CS(=O)(=O)c1ccc(C(=O)Nc2ccc(Cl)c(-c3ccccn3)c2)c(Cl)c1 [vismodegib] + OCc1c[nH]c2ccccc12 [Indole-3-carbinol] (first compound 5 µM, partner dose 4 µM)",92.2
20,"CN(c1ncccc1CNc1nc(Nc2ccc3c(c2)CC(=O)N3)ncc1C(F)(F)F)S(C)(=O)=O + CC1(C)NC(=O)N(c2ccc([N+](=O)[O-])c(C(F)(F)F)c2)C1=O [nilutamide] (first compound 0.4 µM, partner dose 5 µM)",94.1
21,"CS(=O)(=O)c1ccc(C(=O)Nc2ccc(Cl)c(-c3ccccn3)c2)c(Cl)c1 [vismodegib] + NCC(=O)Nc1ccc(-n2nc(C(F)(F)F)cc2-c2ccc3c(ccc4ccccc43)c2)cc1 [OSU03012] (first compound 5 µM, partner dose 5 µM)",93.7
22,"CS(=O)(=O)c1ccc(C(=O)Nc2ccc(Cl)c(-c3ccccn3)c2)c(Cl)c1 [vismodegib] + C[C@]1(c2nc3c(C(N)=O)cccc3[nH]2)CCCN1 [Veliparib] (first compound 5 µM, partner dose 7 µM)",104
23,"NC1(c2ccc(-c3nc4ccn5c(=O)[nH]nc5c4cc3-c3ccccc3)cc2)CCC1 + C=CCn1c(=O)c2cnc(Nc3ccc(N4CCN(C)CC4)cc3)nc2n1-c1cccc(C(C)(C)O)n1 [MK1775] (first compound 2 µM, partner dose 0.1 µM)",107
